# Experimental data reported in PubChem BioAssay (NCATS).
# This list was built around the results that the source calls inconclusive (neither active nor inactive); the mix of calls is not that of the screen. Entries that show only a call come without a potency. For some of these results: Potencies beside an inconclusive call are fits to weak or partial responses and may not hold up. Activity calls are given as the source filed them. Unless noted, calls follow the shape of the dose curve; as a rule, active = well fitted curve in the direction sought with a large enough effect; inconclusive = small, poorly fitted or top-dose-only effect, or another doubt; inactive = no such curve, though single readings can be large; an effect the other way counts as inactive or inconclusive. Where a SMILES comes first, the peptide text is derived from it.
# Key:
# [1] = P-glycoprotein substrates identified in KB-8-5-11 adenocarcinoma cell line, qHTS therapeutic library screen (AID 1346987); conditions: activity change, negative = cytotoxicity: at 44.5 µM (top of the series); also: nearly all actives have a fitted effect of over 65% in size
# Procedure, shortened: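 Compounds are pinned in dose-response onto KB-8-5-11 cells (500 cells/well, colchicine-free medium) and left 72 h at 37 degree C. CellTiter-Glo luminescence then yields AC50 values.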
# [2] = molecular target: Cytochrome P450 2D6 (Homo sapiens) (UniProt P10635); experiment: Cytochrome P450 family 2 subfamily D member 6 (CYP2D6) small molecule antagonists: luciferase biochemical (cell-free) qHTS assay (AID 1645840; active = well fitted curve in the direction sought with a large enough effect in the repeat runs; inconclusive = weak or mixed curves; inactive = no such curve, though single readings can be large; an effect the other way counts as inactive or inconclusive; also: potency is read from the fitted curve at half-maximal effect; nearly all actives have a fitted effect of over 55% in size)
# Procedure, shortened: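 P450-Glo CYP2D6 system: proluciferin substrate converted by enzyme to luciferin, read by luminescence proportional to activity. Enzyme-substrate mix with compound 10 min at room temperature, then NADPH regeneration 1 h before detection reagent.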
# [3] = Primary qHTS for inhibitors of nuclear receptor binding SET domain protein 2 (NSD2) in an RCH-ACV wild type WT cells (2C) (AID 1645877); conditions: activity change, negative = cell killing: at 44.9 µM (top of the series) unless noted; also: nearly all actives have a fitted effect of over 70% in size
# [4] = Primary fluorescence-based thiol-reactive (MSTI) qHTS assay for identification of artifact compounds. (AID 1845221); also: potency is read from the fitted curve at half-maximal effect;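 also: thiol-reactive compounds lower the probe fluorescence signal; nearly all actives have a fitted effect of over 65% in size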
# Procedure, shortened: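 In PBS pH 7.4 with 2% DMSO, each compound met 4 uM MSTI for one hour at ambient temperature, shielded from light, before fluorescence detection.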
# Hek293T = experiment: Primary qHTS to identify gynecologic anti-cancer compounds using libraries of approved drugs and bioactive compounds (AID 1345084); conditions: Gynecologic cancer cell panel viability, ATPlite luminescence, 48 h, control line for the selectivity index; series mostly up to 57.5 µM; also: nearly all actives have a fitted effect of over 55% in size; also: potency is read from the fitted curve at half-maximal effect
# Procedure, shortened: (§1)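 Five-concentration response, 48 h; readout is ATP-driven luciferase luminescence.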
# PA-1 = experiment: as above; conditions: Gynecologic cancer cell panel viability, ATPlite luminescence, 48 h; series mostly up to 57.5 µM
# Procedure, shortened: as §1
# [5] = test system: Zika virus NS2B-NS3 protease (linked construct); experiment: Primary screen NINDS Rhodamine qHTS for Zika virus inhibitors (AID 1347160); also: nearly all actives have a fitted effect of over 55% in size; also: potency is read from the fitted curve at half-maximal effect
# Procedure, shortened: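 Single-chain NS2B-NS3 protease, 25 nM, pH 8.0; compounds preincubated 15 min. Activity: Rhodamine110 release from 1.5 microM substrate over 15 min, room temperature, data fitted to 4-parameter Hill.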
# SKOV3 = experiment: Primary qHTS to identify gynecologic anti-cancer compounds using libraries of approved drugs and bioactive compounds (AID 1345084); conditions: Gynecologic cancer cell panel viability, ATPlite luminescence, 48 h; series mostly up to 57.5 µM; also: nearly all actives have a fitted effect of over 55% in size; also: potency is read from the fitted curve at half-maximal effect
# Procedure, shortened: as §1
# [6] = test system: Zika virus NS2B-NS3 protease (unlinked complex); experiment: Primary screen GU Rhodamine qHTS for Zika virus inhibitors: Unlinked NS2B-NS3 protease assay (AID 1347159); conditions: Recombinant ZIKV NS2B-NS3 protease, Rhodamine110 substrate fluorescence; activity change, negative = inhibition: at 107 µM (top of the series); also: potency is read from the fitted curve at half-maximal effect; nearly all actives have a fitted effect of over 60% in size
# Procedure, shortened: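 Unlinked NS2B/NS3, 25 nM; Rhod110 peptide, 1.5 microM; compounds, up to 114 microM. Reaction run 15 min at RT in 10 mM Tris-HCl pH 8.0, 0.01% Tween 20; kinetic fluorescence change fitted with a 4-parameter Hill model.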
# [7] = Primary qHTS for inhibitors of nuclear receptor binding SET domain protein 2 (NSD2) in an isogenic RCH-ACV NSD2 p.E1099K mutant (9B) (AID 1645876); conditions: activity change, negative = viability loss: at 44.9 µM (top of the series) unless noted; also: nearly all actives have a fitted effect of over 70% in size
# [8] = P-glycoprotein substrates identified in KB-3-1 adenocarcinoma cell line, qHTS therapeutic library screen (AID 1346986); also: nearly all actives have a fitted effect of over 60% in size
# Procedure, shortened: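 72 h cell-killing screen, 500 cells/well, CellTiter-Glo luminescence. Paired lines KB-3-1/KB-8-5-11; P-gp dependence checked by tariquidar co-treatment and HEK-293 MDR-19 versus empty-vector cells.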
# [9] = molecular target: Cytochrome P450 3A4 (Homo sapiens) (UniProt P08684); experiment: Cytochrome P450 family 3 subfamily A member 4 (CYP3A4) small molecule antagonists: luciferase qHTS assay (AID 1645841; active = well fitted curve in the direction sought with a large enough effect in the repeat runs; inconclusive = weak or mixed curves; inactive = no such curve, though single readings can be large; an effect the other way counts as inactive or inconclusive; also: potency is read from the fitted curve at half-maximal effect; nearly all actives have a fitted effect of over 45% in size)
# Procedure, shortened: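 P450-Glo CYP3A4 enzyme with proluciferin substrate was preincubated with DMSO-dissolved compounds for 10 min at room temperature. NADPH regeneration solution started a 1 h reaction. Detection reagent stopped it, and luminescence was read after 20 min.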
# [10] = molecular target: Luciferin 4-monooxygenase (Photinus pyralis) (UniProt P08659); experiment: Primary firefly luciferase (FLuc) qHTS assay for identification of artifact compounds. (AID 1845220); also: nearly all actives have a fitted effect of over 60% in size
# Procedure, shortened: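 qHTS, 15 min compound preincubation with substrate (10 uM luciferin, 10 uM ATP) at RT, then 10 nM FLuc; 5 min; luminescence; % inhibition vs no-enzyme/DMSO controls, 4-parameter Hill fit.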
# Tov112D = experiment: Primary qHTS to identify gynecologic anti-cancer compounds using libraries of approved drugs and bioactive compounds (AID 1345084); conditions: Gynecologic cancer cell panel viability, ATPlite luminescence, 48 h; series mostly up to 57.5 µM; also: nearly all actives have a fitted effect of over 55% in size; also: potency is read from the fitted curve at half-maximal effect
# Procedure, shortened: as §1
# [11] = molecular target: Cytochrome P450 2C9 (Homo sapiens) (UniProt P11712); experiment: Cytochrome P450 family 2 subfamily C member 9 (CYP2C9) small molecule antagonists: luciferase biochemical (cell-free) qHTS assay (AID 1645842; active = well fitted curve in the direction sought with a large enough effect in the repeat runs; inconclusive = weak or mixed curves; inactive = no such curve, though single readings can be large; an effect the other way counts as inactive or inconclusive; also: nearly all actives have a fitted effect of over 55% in size; also: potency is read from the fitted curve at half-maximal effect)
# Procedure, shortened: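 P450-Glo CYP2C9 system: proluciferin substrate with enzyme in mix containing 0.4% BSA, 10 min at room temperature, then NADPH regeneration solution added and incubated 1 h at 37C. Detection reagent stopped reaction; luminescence read after 20 min as RLU.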
# [12] = molecular target: Glutathione peroxidase 1 (Homo sapiens) (UniProt P07203); experiment: Primary qHTS Assay for Inhibitors of Recombinant Selenoprotein Glutathione Peroxidase 1 (GPX1) (AID 1845191); also: potency is read from the fitted curve at half-maximal effect; nearly all actives have a fitted effect of over 65% in size
# Procedure, shortened: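 GPX1 10 nM, GR 100 nM, GSH 1 mM, NADPH 0.5 mM, CHP 0.5 mM (final). 30-min cpd preincubation, RT. Ex340/Em450 read t=0, t=15 min.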
# [13] = molecular target: Phospholipid hydroperoxide glutathione peroxidase GPX4 (Homo sapiens) (UniProt P36969); experiment: Primary qHTS Assay for Inhibitors of Recombinant Selenoprotein Glutathione Peroxidase 4 (GPX4) (AID 1845192); conditions: activity change, negative = inhibition: at 50 µM (top of the series) unless noted; also: potency is read from the fitted curve at half-maximal effect; nearly all actives have a fitted effect of over 65% in size
# Procedure, shortened: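 qHTS, GR-coupled: GPX4 200 nM + cpd 30 min RT → GSH 1 mM, NADPH 0.5 mM, GR 100 nM → CHP 0.5 mM start; fluor 340/450 at t0 and t15 min; no-enzyme wells as control.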
# [14] = Primary redox qHTS assay for identification of artifact compounds. (AID 1845223); also: potency is read from the fitted curve at half-maximal effect
# Procedure, shortened: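 Redox-cycling detection via DTT (250 uM final) oxidation coupled to Amplex Red (25 uM)/HRP (250 mU/mL) in HBSS. 15 min preincubation plus 30 min after DTT, room temperature. Ex/Em 525/598 nm; 4-parameter Hill fit against DMSO and 10 uM DA3003.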
# JEG-3 = experiment: Primary qHTS to identify gynecologic anti-cancer compounds using libraries of approved drugs and bioactive compounds (AID 1345084); conditions: Gynecologic cancer cell panel viability, ATPlite luminescence, 48 h; series mostly up to 57.5 µM; also: nearly all actives have a fitted effect of over 55% in size; also: potency is read from the fitted curve at half-maximal effect
# Procedure, shortened: as §1
# OV90 = experiment: as above; conditions: Gynecologic cancer cell panel viability, ATPlite luminescence, 48 h; series mostly up to 57.5 µM
# Procedure, shortened: as §1
# Tags tell the direction and shape of the fitted curve.
# UniProt P10635, sequence (P10635 whole entry, looked up): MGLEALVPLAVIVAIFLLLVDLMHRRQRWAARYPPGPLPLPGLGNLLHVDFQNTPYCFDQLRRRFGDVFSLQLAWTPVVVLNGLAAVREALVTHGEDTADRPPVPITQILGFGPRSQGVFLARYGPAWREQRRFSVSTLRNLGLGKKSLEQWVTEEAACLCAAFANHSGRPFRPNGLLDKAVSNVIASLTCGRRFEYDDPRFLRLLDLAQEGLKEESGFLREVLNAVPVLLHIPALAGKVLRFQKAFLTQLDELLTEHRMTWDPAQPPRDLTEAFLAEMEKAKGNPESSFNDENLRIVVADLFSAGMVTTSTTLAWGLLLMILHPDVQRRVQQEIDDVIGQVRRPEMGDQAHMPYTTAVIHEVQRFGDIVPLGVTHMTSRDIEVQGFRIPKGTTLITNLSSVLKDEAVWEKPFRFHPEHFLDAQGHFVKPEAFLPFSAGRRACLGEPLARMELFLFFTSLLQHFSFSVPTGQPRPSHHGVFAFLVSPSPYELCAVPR
# UniProt P11712, sequence (P11712 whole entry, looked up): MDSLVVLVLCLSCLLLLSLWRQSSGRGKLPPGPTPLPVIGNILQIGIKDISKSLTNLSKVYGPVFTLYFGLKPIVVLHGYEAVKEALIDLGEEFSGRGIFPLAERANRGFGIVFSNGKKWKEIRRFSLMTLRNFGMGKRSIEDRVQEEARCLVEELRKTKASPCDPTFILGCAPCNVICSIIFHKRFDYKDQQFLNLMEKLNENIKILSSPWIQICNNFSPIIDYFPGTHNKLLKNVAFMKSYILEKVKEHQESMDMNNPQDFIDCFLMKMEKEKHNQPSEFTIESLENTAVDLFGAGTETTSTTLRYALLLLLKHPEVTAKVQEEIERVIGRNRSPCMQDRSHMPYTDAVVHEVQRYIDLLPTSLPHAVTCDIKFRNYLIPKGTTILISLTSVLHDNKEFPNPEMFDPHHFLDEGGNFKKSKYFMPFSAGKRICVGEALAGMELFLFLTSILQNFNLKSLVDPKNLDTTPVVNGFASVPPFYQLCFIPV
# UniProt P07203, sequence (P07203 whole entry, looked up): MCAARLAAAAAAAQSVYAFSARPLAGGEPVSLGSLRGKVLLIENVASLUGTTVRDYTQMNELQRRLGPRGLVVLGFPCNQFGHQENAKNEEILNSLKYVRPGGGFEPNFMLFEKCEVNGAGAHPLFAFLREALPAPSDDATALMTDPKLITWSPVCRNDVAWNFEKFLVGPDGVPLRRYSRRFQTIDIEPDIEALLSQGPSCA
# UniProt P08684, sequence (P08684 whole entry, looked up): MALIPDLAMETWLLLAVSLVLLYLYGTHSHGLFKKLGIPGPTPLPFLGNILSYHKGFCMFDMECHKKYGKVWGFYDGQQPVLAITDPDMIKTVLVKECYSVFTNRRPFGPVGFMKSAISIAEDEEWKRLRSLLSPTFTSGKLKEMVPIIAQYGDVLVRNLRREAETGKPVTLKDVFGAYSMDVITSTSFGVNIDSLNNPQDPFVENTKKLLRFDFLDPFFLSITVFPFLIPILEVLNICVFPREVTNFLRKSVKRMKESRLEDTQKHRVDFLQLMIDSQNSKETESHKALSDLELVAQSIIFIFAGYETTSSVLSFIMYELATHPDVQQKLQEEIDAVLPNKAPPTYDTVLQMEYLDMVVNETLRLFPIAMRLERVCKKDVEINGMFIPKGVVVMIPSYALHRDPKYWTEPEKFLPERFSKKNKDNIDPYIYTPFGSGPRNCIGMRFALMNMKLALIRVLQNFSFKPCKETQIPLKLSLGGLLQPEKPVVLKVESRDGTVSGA
# UniProt P36969, sequence (P36969 whole entry, looked up): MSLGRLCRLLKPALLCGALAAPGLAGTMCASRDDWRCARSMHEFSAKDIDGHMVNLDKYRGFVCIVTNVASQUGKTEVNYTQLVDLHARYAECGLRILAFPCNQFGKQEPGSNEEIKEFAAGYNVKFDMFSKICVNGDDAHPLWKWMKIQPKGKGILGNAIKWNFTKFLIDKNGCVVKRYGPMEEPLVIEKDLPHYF
smiles,measurement,setting,value
C(#Cc1cccc(CN2CCOCC2)c1)CCN1CCCCC1,Potency,[1],inactive
same,Potency,[2],"inconclusive: 26.8 µM [inhibitor, single point]"
same,Potency,[3],inactive
same,Potency,[4],inactive
same,Potency,Hek293T,inactive
same,Potency,PA-1,inactive
CC(O)C1NC(=O)C2CCCN2C1=O (configuration not stated),Potency,[5],inactive
same,Potency,Hek293T,"inconclusive: 56.2 µM [rising, single point]"
same,Potency,SKOV3,"inconclusive: 5.62 µM [rising, full curve, poor fit]"
CC1=C2C3OC(=O)C(C)C3(O)CCC2(C)CCC1O (configuration not stated),Potency,[6],"inconclusive: 44.7 µM [inhibitor, partial curve, poor fit]"
same,Potency,[7],inactive
same,Potency,[4],active: 11.9 µM
same,Potency,Hek293T,inactive
same,Potency,PA-1,inactive
CCCn1c(=O)c2[nH]c(-c3ccc(OCC(=O)O)cc3)nc2n(CCC)c1=O,Potency,[8],inactive
same,Potency,[6],"inconclusive: 28.2 µM [inhibitor, full curve, poor fit]"
same,Potency,[9],"inconclusive: 21.3 µM [falling, partial curve, poor fit]"
same,Potency,[7],inactive
same,Potency,Hek293T,inactive
same,Potency,PA-1,inactive
CC1(C)C[C@H](O)C[C@@]2(C)[C@H]1[C@H](O)C=C1COC(=O)[C@@]12O,Potency,[10],inactive
same,Potency,[4],"inconclusive: 18.9 µM [inhibitor, partial curve]"
same,Potency,Hek293T,inactive
same,Potency,Tov112D,inactive
COc1ccc2cc(C(C)C(=O)Oc3ccc(C(N)=S)cc3)ccc2c1 (configuration not stated),Potency,[2],"inconclusive: 23.9 µM [inhibitor, partial curve]"
same,Potency,[11],active: 21.3 µM
same,Potency,[7],inactive
same,Potency,[12],"inconclusive: 18 µM [inhibitor, partial curve]"
same,Potency,[13],"inconclusive: 20.2 µM [inhibitor, single point]"
same,Potency,Hek293T,inactive
O=[N+]([O-])c1cc(Cl)ccc1S(=O)(=O)N1CCN(Cc2ccccc2)CC1,Potency,[4],"inconclusive: 1.68 µM [inhibitor, partial curve]"
same,Potency,Hek293T,"inconclusive: 31.6 µM [cytotoxic, single point]"
same,Potency,SKOV3,"inconclusive: 3.55 µM [rising, partial curve, poor fit]"
O=C(O[C@H]1[C@@H]2C[C@@H]3OC[C@@](O)([C@H]2[C@H](O[C@@H]2O[C@H](CO)[C@@H](O)[C@H](O)[C@H]2O)O3)[C@@H]1O)c1ccccc1,Potency,[6],"inconclusive: 14.1 µM [inhibitor, partial curve]"
same,Potency,[5],"inconclusive: 11.2 µM [inhibitor, single point]"
same,Potency,[14],inactive
same,Potency,Hek293T,inactive
same,Potency,SKOV3,inactive
C=C(CC/C=C(\C)C(=O)O)C1(O)CC=C(C)CC1 (configuration not stated),Potency,[1],inactive
same,Potency,[6],"inconclusive: 28.2 µM [inhibitor, full curve]"
same,Potency,[5],"inconclusive: 17.8 µM [inhibitor, single point]"
same,Potency,[14],"inconclusive: 37.7 µM [activator, partial curve, poor fit]"
same,Potency,Hek293T,inactive
C[C@H](NCc1ccc(OCc2ccccc2F)cc1)C(N)=O,Potency,[1],inactive
same,Potency,[2],"inconclusive: 37.9 µM [inhibitor, single point]"
same,Potency,[11],inactive
same,Potency,[7],inactive
same,Potency,JEG-3,inactive
same,Potency,OV90,inactive
CC(C)C1NC(=O)CNC(=O)C2CCCN2C(=O)C(Cc2c[nH]c3ccccc23)NC(=O)CNC(=O)C(Cc2ccc(O)cc2)NC(=O)CNC1=O (configuration not stated) (cyclo(GVGYGWP); configuration not given here),Potency,[3],inactive
same,Potency,JEG-3,inactive
same,Potency,SKOV3,inactive
